The full ranking holds about 81,000 sequences; the median of “one-hybrid fitness for binding NBS DNA” is about -0.1, and the highest 2% start at about 0.36. Some of the results follow.
B1: Caulobacter ParB omega fusion; a variant is named by its letters at X, in order, B8GW30 (parent)
chain: MESVVVGEPGMSEGRRGLGRGLSALLGEVDAAPAQAPGEQLGGSREAPIEILQRNPDQPRRTFREEDLEDLSNSIREKGVLQPILVRPSPDTAGEYQIVAGERAWRAAQRAGLKTVPIMVRELDDLAVLEIGIIENVQRADLNVLEEALSYKVLMEKFERTQENIAQTIGKSXSHVANXMRLLXLPDEVQSYLVSGELTAXHARAIAAAADPVALAKQIIEGGLSVRETEALARKAPNLSAGKSKGGRPPRVKDTDTQALESDLSSVLGLDVSIDHRGSTGTLTITYATLEQLDDLCNRLTRGI

Variants of: B1
Assay: one-hybrid fitness for binding NBS DNA (the Noc-binding site; scaled: cognate 1, non-cognate 0); higher = stronger binding
Conditions: with NBS DNA site
Method in brief: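 Caulobacter ParB libraries with four specificity codons randomised were screened by bacterial one-hybrid selection in the E. coli USO strain, using a HIS3 reporter whose site lies 19 bp from the promoter. Selection ran for 48 hours at 37°C on M9 lacking histidine, with 0.1 mM IPTG and 5 mM 3-AT. Plasmids were Illumina-sequenced before and after selection, three replicate libraries were pooled, and variants with under 10 reads were dropped. Fitness is the log change in each variant's read ratio to wild type, rescaled against the cognate and non-cognate sites.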

Row | Variant | one-hybrid fitness for binding NBS DNA
1 | ITTK | ≤ 0.2
2 | ARFC | ≤ 0.2
3 | CESW | ≤ 0.2
4 | IVQA | ≤ 0.2
5 | YKIG | ≤ 0.2
6 | QCAD | ≤ 0.2
7 | TNHG | ≤ 0.2
8 | PWLL | ≤ 0.2
9 | IPHF | ≤ 0.2
10 | QVLR | 0.305
11 | PTVK | ≤ 0.2
12 | EEPS | ≤ 0.2
13 | AHLK | ≤ 0.2
14 | VPKM | ≤ 0.2
15 | VRKC | ≤ 0.2
16 | FLRR | ≤ 0.2
17 | QGAL | ≤ 0.2
18 | SMGT | ≤ 0.2
19 | QDSI | ≤ 0.2
20 | SKSY | ≤ 0.2
21 | IKFC | ≤ 0.2
22 | NAGI | ≤ 0.2
23 | EHMY | ≤ 0.2
24 | WAWR | ≤ 0.2
25 | PKNV | ≤ 0.2

Row | Variant | one-hybrid fitness for binding NBS DNA
26 | SVAG | ≤ 0.2
27 | DTSC | ≤ 0.2
28 | CSAR | ≤ 0.2
29 | HELG | ≤ 0.2
30 | NNMR | ≤ 0.2
31 | VQAT | ≤ 0.2
32 | SSRE | ≤ 0.2
33 | TNDE | ≤ 0.2
34 | MDIK | ≤ 0.2
35 | LALN | ≤ 0.2
36 | LQHS | ≤ 0.2
37 | MESW | ≤ 0.2
38 | WQRW | ≤ 0.2
39 | TRGS | ≤ 0.2
40 | MTRH | ≤ 0.2
41 | MTQT | ≤ 0.2
42 | KDDR | ≤ 0.2
43 | LFYR | ≤ 0.2
44 | RFQI | ≤ 0.2
45 | MQPG | ≤ 0.2
46 | VKWL | ≤ 0.2
47 | LMKQ | ≤ 0.2
48 | LGEA | ≤ 0.2
49 | VDYC | ≤ 0.2
50 | WSTR | ≤ 0.2

Row | Variant | one-hybrid fitness for binding NBS DNA
51 | CVHR | ≤ 0.2
52 | HTGK | ≤ 0.2
53 | HSTW | ≤ 0.2
54 | PCCA | ≤ 0.2
55 | NQQG | ≤ 0.2
56 | PIRP | ≤ 0.2
57 | EHDG | ≤ 0.2
58 | RWHF | ≤ 0.2
59 | RYTP | ≤ 0.2
60 | SMKD | ≤ 0.2
61 | DENK | ≤ 0.2
62 | SFLH | ≤ 0.2
63 | CLTC | ≤ 0.2
64 | VYIT | ≤ 0.2
65 | CLRY | ≤ 0.2
66 | QRAI | 0.301
67 | GPMR | ≤ 0.2
68 | HRKL | ≤ 0.2
69 | SADY | ≤ 0.2
70 | PQMC | ≤ 0.2
71 | PIMY | ≤ 0.2
72 | LWWF | ≤ 0.2
73 | NNID | ≤ 0.2
74 | RISR | 0.386
75 | HVII | ≤ 0.2

Row | Variant | one-hybrid fitness for binding NBS DNA
76 | IWLR | ≤ 0.2
77 | MLIS | ≤ 0.2
78 | STWV | ≤ 0.2
79 | QHRM | 0.379
80 | KGCA | ≤ 0.2
81 | LAVV | ≤ 0.2
82 | TLPR | ≤ 0.2
83 | MKCY | ≤ 0.2
84 | AHMG | ≤ 0.2
85 | PEKR | ≤ 0.2
86 | ISCS | ≤ 0.2
87 | SIFQ | ≤ 0.2
88 | VRPI | ≤ 0.2
89 | AEHM | ≤ 0.2
90 | QANV | ≤ 0.2
91 | QSQK | ≤ 0.2
92 | RGAT | ≤ 0.2
93 | GYQM | ≤ 0.2
94 | HCLC | ≤ 0.2
95 | LPNQ | ≤ 0.2
96 | CLKS | ≤ 0.2
97 | MVAV | ≤ 0.2
98 | ALQM | ≤ 0.2
99 | HACL | ≤ 0.2
100 | CGSW | ≤ 0.2

Row | Variant | one-hybrid fitness for binding NBS DNA
101 | WMAR | ≤ 0.2
102 | HSQK | ≤ 0.2
103 | AVCE | ≤ 0.2
104 | LCNS | ≤ 0.2
105 | QMQN | ≤ 0.2
106 | EVQG | ≤ 0.2
107 | QWTA | ≤ 0.2
108 | WQST | ≤ 0.2
109 | QRIT | 0.678
110 | GATG | ≤ 0.2
111 | RFST | 0.217
112 | QFEE | ≤ 0.2
113 | RRFT | 0.777
114 | PGSN | ≤ 0.2
115 | MCIC | ≤ 0.2
116 | RKEF | ≤ 0.2
117 | DHTM | ≤ 0.2
118 | SIQG | ≤ 0.2
119 | RDGC | ≤ 0.2
120 | KGAH | ≤ 0.2
121 | SLEM | ≤ 0.2
122 | MCYT | ≤ 0.2
123 | FPVT | ≤ 0.2
124 | WVHC | ≤ 0.2
125 | DHNA | ≤ 0.2

Row | Variant | one-hybrid fitness for binding NBS DNA
126 | FMQG | ≤ 0.2
127 | WSNT | ≤ 0.2
128 | IVKC | ≤ 0.2
129 | WFHS | ≤ 0.2
130 | HPVG | ≤ 0.2
131 | LGHA | ≤ 0.2
132 | LAKW | ≤ 0.2
133 | KMWD | ≤ 0.2
134 | PSQA | ≤ 0.2
135 | GCHG | ≤ 0.2
136 | MDNT | ≤ 0.2
137 | ADKD | ≤ 0.2
138 | QNVG | ≤ 0.2
139 | QYGL | ≤ 0.2
140 | YARH | ≤ 0.2
141 | PHHA | ≤ 0.2
142 | MNRQ | ≤ 0.2
143 | KTYH | ≤ 0.2
144 | THNW | ≤ 0.2
145 | LSNM | ≤ 0.2
146 | DTTH | ≤ 0.2
147 | QQLT | 0.45
148 | YHTR | ≤ 0.2
149 | LGAC | ≤ 0.2
150 | PIVC | ≤ 0.2

Row | Variant | one-hybrid fitness for binding NBS DNA
151 | LILG | ≤ 0.2
152 | LGKS | ≤ 0.2
153 | HAGG | ≤ 0.2
154 | GMQG | ≤ 0.2
155 | SMMM | ≤ 0.2
156 | ESSI | ≤ 0.2
157 | VLPV | ≤ 0.2
158 | CGVE | ≤ 0.2
159 | DPLI | ≤ 0.2
160 | RTNK | ≤ 0.2
161 | PCMG | ≤ 0.2
162 | TRPM | ≤ 0.2
163 | GVQA | ≤ 0.2
164 | YWQS | ≤ 0.2
165 | ALAG | ≤ 0.2
166 | QVKH | 0.38
167 | RRPW | ≤ 0.2
168 | RWIA | ≤ 0.2
169 | RCMF | ≤ 0.2
170 | ALLI | ≤ 0.2
171 | TTWV | ≤ 0.2
172 | YNYC | ≤ 0.2
173 | KVFC | ≤ 0.2
174 | QTWA | 0.367
175 | HSHV | ≤ 0.2

Row | Variant | one-hybrid fitness for binding NBS DNA
176 | TAYK | ≤ 0.2
177 | QQND | ≤ 0.2
178 | SARP | ≤ 0.2
179 | HANV | ≤ 0.2
180 | SAAF | ≤ 0.2
181 | QPSY | ≤ 0.2
182 | KLGM | ≤ 0.2
183 | IVYG | ≤ 0.2
184 | EDAC | ≤ 0.2
185 | VVYI | ≤ 0.2
186 | TVFW | ≤ 0.2
187 | LHVG | ≤ 0.2
188 | PHYT | ≤ 0.2
189 | AFIG | ≤ 0.2
190 | TRSM | ≤ 0.2
191 | PWVM | ≤ 0.2
192 | ARVV | ≤ 0.2
193 | YAGR | ≤ 0.2
194 | INHT | ≤ 0.2
195 | DTPD | ≤ 0.2
